PubChem BioAssay AID686978 (National Center for Advancing Translational Sciences (NCATS), 2013)
Values joined by “and” are separate entries in the source; they are usually repeats but may differ in a detail not shown here. Equal values may be shown once. The whole screen tested about 420,000 compounds, of which about 64,000 (15%) were called active. Inconclusive results, whose numbers are uncertain, are shown with a selection of clear calls. Calls come from the whole dose curve; as a rule, active = well fitted inhibition curve with a large enough effect; inconclusive = small, poorly fitted or top-dose-only effect; inactive = flat fitted curve, though single readings scatter. Potencies of inconclusive entries are doubtful fits and often do not repeat.

Assay: qHTS for Inhibitors of human tyrosyl-DNA phosphodiesterase 1 (TDP1): qHTS in cells in absence of CPT; note: nearly all actives have a fitted effect of over 55% in size
Conditions: DT40 Tdp1-/- hTDP1 cells, no CPT, ATP luminescence, 48 h; activity change, negative = growth inhibition: at 46.2 µM (top of the series) unless noted
Summary of the method: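 Camptothecin absent (DMSO only). Human TDP1-complemented DT40 knockout cells, 400 cells/well, 37 °C for minimum 48 hr; ATP measured via CellTiter-Glo, 30 min dark incubation, luminescence.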
% is set by controls: 0 for no effect and ±100 for the full control effect; potency is the fitted concentration of half-maximal effect; tags give direction and shape of the fitted curve.

SMILES	Potency	activity change, negative = growth inhibition
CCOC(=O)N1CCN(Cc2ccc3c(c2)CN(C(=O)c2sc(C)nc2C)CCO3)CC1	active: 16.4 µM	–
CCCCOc1ccc(Cc2n[nH]c(=S)n2N)cc1	inconclusive: 20.6 µM [inhibitor, single point]	–
CCN(CC)S(=O)(=O)c1ccc2c(c1)N(CC(=O)Nc1ccccc1F)C(=O)C1CCCN21 (configuration not stated)	–	inconclusive: -27% [inhibitor]
O=C(Oc1ccc(C(=S)N2CCOCC2)cc1)c1ccccc1	–	inactive: -14.5%
CC(C)(C)c1ccc(/C=C/C(=O)Nc2ccc(S(N)(=O)=O)cc2)cc1	active: 8.2 µM	–
COc1ccccc1CNc1ncncc1-c1ccccc1C	–	inactive: -14.6%
CCN(CC)C(=O)Cn1cnc2sc(C(=O)N3CCN(c4ccc(OC)cc4)CC3)c(C)c2c1=O	inconclusive: 29.1 µM [inhibitor, single point]	–
COC(=O)c1c(NC(=O)Cc2ccccc2)sc2c1CC(C)(C)NC2(C)C	inconclusive: 25.9 µM [inhibitor, single point]	–
COc1ccc(C(=O)c2ccc(Cl)cc2)cc1	inconclusive: 14.6 µM [inhibitor, partial curve]	–
COc1ccccc1CNc1nc(Nc2cccc(-c3cnco3)c2)c2sccc2n1	active: 20.6 µM	–
CCn1ccnc1C[C@@H]1COc2ccccc2O1	–	inactive: -21.8%
O=[N+]([O-])c1ccc(N2CCN(c3nc(-c4ccc(Cl)cc4)cs3)CC2)cc1	active: 11.6 µM	–
NCCNCCNCCNCCN	–	inactive: -16.7%
COc1cccc(NC(=S)NC(=O)Cc2ccccc2)c1	–	inactive: -20.5%
CN(C)c1ccnc(-c2ccccc2C(F)(F)F)n1	inconclusive: 23.1 µM [inhibitor, partial curve, poor fit]	–
CCC(=O)c1ccc(OCC(O)CN2CCN(S(=O)(=O)N3CCCCC3)CC2)cc1 (configuration not stated)	inconclusive: 25.9 µM [inhibitor, single point]	–
COc1ccc(OC(C)C(=O)Nc2cccc(F)c2)cc1 (configuration not stated)	inconclusive: 29.1 µM [inhibitor, single point]	–
COc1cccc(CN2CCN(C(=O)c3cccc4ccccc34)CC2)c1OC	inconclusive: 20.6 µM [inhibitor, partial curve]	–
Cc1ccc(NC(=O)c2ncn(CC(=O)NCc3ccc4c(c3)OCO4)n2)cc1C	–	inactive: -9.87%
Cc1cccc(C(=O)Nc2ccc(S(=O)(=O)N3CCC(c4nc5ccccc5s4)CC3)cc2)c1	inconclusive: 20.6 µM [inhibitor, single point]	–
Clc1cncc(Cl)c1NNc1c2ccccc2nc2ccccc12	inconclusive: 20.6 µM [inhibitor, single point]	–
CC(=O)c1c(C)c[nH]c1C	inconclusive: 29.1 µM [inhibitor, single point]	–
CC1(C)Cc2c(cnn2-c2cccc(F)c2)C(NC(=O)CCN2CCCC2=O)C1 (configuration not stated)	–	inactive: -16.8%
Cc1cc(C)c(C#N)c(SCCS(=O)(=O)c2ccc(Cl)cc2)n1	inconclusive: 16.4 µM [inhibitor, single point]	–
O=S(=O)(Nc1ccc2c(c1)nc1n2CCN(Cc2ccccc2)C1)c1ccc(F)cc1	inconclusive: 20.6 µM [inhibitor, single point]	–
O=C(CCc1c[nH]c2ccccc12)NCCc1ccc2c(c1)OCCO2	inconclusive: 16.4 µM [inhibitor, partial curve]	–

SMILES	Potency	activity change, negative = growth inhibition
CCOC(=O)CSc1nc(C2CC2)cc(-c2ccc(F)cc2)c1C#N	–	inactive: -25.5%
Cc1cc(C)c(NC(=O)CSc2ncc3c(n2)-c2cc(Cl)ccc2N(C)S3(=O)=O)c(C)c1	active: 0.0461 µM	–
CCC(C)(C)NC(=O)C1CCN(S(=O)(=O)c2ccc3c(c2)CCCN3C(C)=O)CC1	–	inactive: -0.221%
CCn1c(SCC(=O)Nc2ccc3c(c2)OCO3)nnc1-c1ccccc1O	–	inactive: -17.3%
COC(=O)c1ccc2c(c1)NC(=O)C(N(CC(C)C)CC(C)C)S2 (configuration not stated)	inconclusive: 6.51 µM [inhibitor, partial curve]	–
CCOC(=O)C1CCN(C(C)=C2C(=O)c3ccccc3C2=O)CC1	–	inactive: -24.6%
COCCCNC(=O)c1cc2cc(S(=O)(=O)N3CCCCC3)ccc2n1C	inconclusive: 4.61 µM [inhibitor, full curve]	–
Cc1onc(-c2ccccc2)c1C(=O)N1CCN(Cc2ccccc2)CC1	inconclusive: 20.6 µM [inhibitor, single point]	–
O=C(NNC(=O)c1cccc2ccccc12)c1ccco1	inconclusive: 11.6 µM [inhibitor, partial curve, poor fit]	–
O=C(c1ccc2c(=O)n(Cc3ccccc3Cl)c(=S)[nH]c2c1)N1CCOCC1	–	inactive: -29.7%
O=S(=O)(Nc1nc(-c2ccco2)c(-c2ccco2)s1)c1ccc(F)cc1F	–	inactive: -18.3%
CCN(CC)CCOC(=O)c1ccc(NC(=O)c2cc3c(=O)n(CC)c4ccccc4c3s2)cc1	active: 5.17 µM	–
Cc1ccnc(NC(=O)c2ccc(Cl)c(NC(=O)c3ccccc3C)c2)c1	inconclusive: 25.9 µM [inhibitor, partial curve, poor fit]	–
O=C(NC1CC1)c1sc2cc([N+](=O)[O-])ccc2c1Cl	inconclusive: 18.4 µM [inhibitor, single point]	–
COc1cc(C(=O)NCC(c2cccs2)N(C)C)cc(Cl)c1OC(C)C (configuration not stated)	active: 20.6 µM	–
Cc1ccccc1C(=O)Nc1cccc(OCc2cc(=O)n3c(C)csc3n2)c1	–	inactive: -13.1%
Cc1ccc(CNc2nc3cc(-c4ccccc4)sc3c(=O)n2C)c(C)c1	–	inactive: -25.3%
CC(=O)N1CCOc2ccc(S(=O)(=O)Nc3ccc(C)cn3)cc21	–	inactive: 23.5%
CCCNC(=O)CSc1nc2ccc(OCC)cc2s1	–	inactive: -11.1%
COc1ccccc1C1c2c(-c3ccc(Cl)cc3)n[nH]c2C(=O)N1c1ccc(C)cc1 (configuration not stated)	inconclusive: 23.1 µM [inhibitor, single point]	–
Cc1ccc(S(=O)(=O)N2CCC(C(=O)NCc3ccccc3Cl)CC2)cc1	inactive and inconclusive: 25.9 µM [inhibitor, single point]	–
N#Cc1ccc(-c2cccs2)nc1SCC(=O)Nc1cccc(C(F)(F)F)c1	active: 20.6 µM	–
COc1ccc(C(=O)Nc2nc(CC(=O)NCCc3ccccc3OC)cs2)cc1	inconclusive: 20.6 µM [inhibitor, single point]	–
CCCCCn1c(=O)[nH]c2cc(C(=O)Nc3ccc(F)c(F)c3)ccc2c1=O	inconclusive: 8.2 µM [inhibitor, partial curve, poor fit]	–
CN(CC(=O)Nc1ccc(F)cc1)C(=O)CCc1nc2sc3c(c2c(=O)[nH]1)CCCC3	inconclusive: 29.1 µM [inhibitor, single point]	–
COc1ccc(-n2ncc3c(NCC4CCCO4)ncnc32)cc1 (configuration not stated)	inconclusive: 10.3 µM [inhibitor, partial curve, poor fit]	–

SMILES	Potency	activity change, negative = growth inhibition
Cc1ccccc1S(=O)(=O)Cc1ccc(C(=O)N2CCN(c3cccc(Cl)c3)CC2)o1	active: 4.61 µM	–
COc1ccc(C(C)NC(=S)NC2CCCC2)cc1OC (configuration not stated)	–	inactive: -3.93%
CCNC(=O)NC(=O)C(C)OC(=O)Cc1coc2cc3c(cc12)CCC3 (configuration not stated)	–	inactive: 1.63%
COc1cc(O)c2c(=O)c3c(O)c(O)ccc3oc2c1OC	inconclusive: 25.9 µM [inhibitor, single point]	–
NS(=O)(=O)c1ccc(NNC(=O)c2ccc(Br)o2)c([N+](=O)[O-])c1	inconclusive: 29.1 µM [inhibitor, single point]	–
O=c1c2sccc2[nH]c(=S)n1-c1ccccc1	–	inactive: 0.687%
COc1ccc(NC(=O)C2=CC(c3ccco3)=NS(=O)(=O)N2C)cc1	inactive	–
OCc1cc(-c2ccccn2)no1	–	inactive: -2.49%
Cc1ccc(/C=C/C(=O)N(Cc2cccs2)C2CCS(=O)(=O)C2)cc1 (configuration not stated)	active: 20.6 µM	–
O=C(NCC1CCCO1)c1nn2c(C(F)(F)F)cc(-c3ccc(Br)o3)nc2c1Br (configuration not stated)	inconclusive: 11.6 µM [inhibitor, partial curve]	–
CSc1nc(C)cc(SCCO)n1	–	inactive: -17.7%
COc1ccc([C@@H](NC(=O)OC(C)(C)C)C(=O)OC(C)(C)C)cc1	inconclusive: 14.6 µM [inhibitor, partial curve]	–
O=C(NC(=S)N1CCN(c2ccc(F)cc2)CC1)C12CC3CC(CC(C3)C1)C2	inconclusive: 25.9 µM [inhibitor, single point]	–
O=C(/C(=N/O)c1ccccc1)c1ccccc1	–	inactive: -0.342%
CC1CCc2sc(C(=O)N3CCN(c4ncccn4)CC3)cc2C1 (configuration not stated)	–	inconclusive: -32.8% [inhibitor]
CCc1nc2ccc(C(=O)Nc3ccc(OC)c(OC)c3)cn2c1N(C)Cc1cccs1	inconclusive: 20.6 µM [inhibitor, single point]	–
CCCn1c(SCC(=O)N2CCCC2)nc2c1c(=O)n(C)c(=O)n2C	–	inactive: -0.788%
CC(C)C(O)(C#CCN1CCCC1)c1ccccc1 (configuration not stated)	–	inactive: -18.8%
Cc1ccccc1OCCn1cc(C(=S)N2CCN(C)CC2)c2ccccc21	active: 14.6 µM	–
O=C(NCCN1CCOCC1)C(=O)NCc1ccco1	–	inactive: 4.65%
CC(=O)c1c(C)oc2ccc(N(C(C)=O)S(=O)(=O)c3cccc4cccnc34)cc12	active: 4.11 µM	–
CCC(=O)Oc1ccc(C(=O)Nc2ccccc2C(=O)NCC(C)C)cc1	inconclusive: 29.1 µM [inhibitor, single point]	–
Cn1c2ccccc2c2c(C(=O)N3CCN(C(=O)c4ccco4)CC3)cn(C3CCCCC3)c(=O)c21	inconclusive: 20.6 µM [inhibitor, partial curve]	–
CCC(=O)c1cccc(-c2ccccc2)c1CC	–	inactive: -15.7%
O=C(Nc1ccc(Br)cc1)NC1CCCCCCC1	inconclusive: 23.1 µM [inhibitor, single point]	–
